Reference: the supplement of paper PMC8728848
Some of the results follow.

Tests used:
Test in all cases: glycan array binding signal (z-score within array); higher = stronger binding
Details in all cases: glycan notation: IUPAC condensed, linker removed; mutation: R186S
[1] = biological target: GalNAc(b1-4)GlcNAc(b1-2)Man(a1-3)[GalNAc(b1-4)GlcNAc(b1-2)Man(a1-6)]Man(b1-4)GlcNAc(b1-4)GlcNAc
Summary of the method: (§1)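 Glycan array data came from 3228 arrays in the Consortium for Functional Glycomics database, and only arrays with an available protein sequence were kept. Glycan names were put into IUPAC-condensed notation, and columns mapping to the same glycan were averaged. The binding signal is a within-array Z-score, averaged across arrays of one protein sequence run at different concentrations or buffers and across linkers. A negative Z-score can be read as non-binding.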

[2] = biological target: Glc(a1-4)Glc
Summary of the method: as §1

[3] = biological target: Glc(a1-6)Glc(a1-6)Glc
Summary of the method: as §1

[4] = biological target: Glc(b1-4)Glc
Summary of the method: as §1

[5] = biological target: Glc(b1-6)Glc
Summary of the method: as §1

[6] = biological target: GlcA(b1-3)Gal
Summary of the method: as §1

[7] = biological target: GlcA(b1-3)GlcNAc
Summary of the method: as §1

[8] = biological target: GlcA(b1-6)Gal
Summary of the method: as §1

[9] = biological target: GlcNAc(a1-3)Gal(b1-4)GlcNAc
Summary of the method: as §1

[10] = biological target: GlcNAc(a1-4)Gal(b1-3)GlcNAc
Summary of the method: as §1

[11] = biological target: GlcNAc(a1-4)Gal(b1-4)GalNAc
Summary of the method: as §1

[12] = biological target: GlcNAc(a1-4)Gal(b1-4)GlcNAc
Summary of the method: as §1

[13] = biological target: GlcNAc(a1-4)Gal(b1-4)GlcNAc(b1-3)Gal(b1-4)Glc
Summary of the method: as §1

[14] = biological target: GlcNAc(a1-4)Gal(b1-4)GlcNAc(b1-3)Gal(b1-4)GlcNAc
Summary of the method: as §1

[15] = biological target: GlcNAc(a1-4)Gal(b1-4)GlcNAc(b1-3)Gal(b1-4)GlcNAc(b1-3)Gal(b1-4)GlcNAc
Summary of the method: as §1

[16] = biological target: GlcNAc(a1-4)Gal(b1-4)GlcNAc(b1-3)Gal(b1-4)[Fuc(a1-3)]GlcNAc(b1-3)Gal(b1-4)[Fuc(a1-3)]GlcNAc
Summary of the method: as §1

[17] = biological target: GlcNAc(a1-6)Gal(b1-4)GlcNAc
Summary of the method: as §1

[18] = biological target: GlcNAc(b1-2)Gal(b1-3)GalNAc
Summary of the method: as §1

[19] = biological target: GlcNAc(b1-2)Man(a1-3)[GlcNAc(b1-2)Man(a1-6)]Man(b1-4)GlcNAc(b1-4)GlcNAc
Summary of the method: as §1

[20] = biological target: GlcNAc(b1-2)Man(a1-3)[GlcNAc(b1-2)Man(a1-6)]Man(b1-4)GlcNAc(b1-4)[Fuc(a1-6)]GlcNAc
Summary of the method: as §1

[21] = biological target: GlcNAc(b1-2)[GlcNAc(b1-4)]Man(a1-3)[GlcNAc(b1-2)Man(a1-6)]Man(b1-4)GlcNAc(b1-4)GlcNAc
Summary of the method: as §1

[22] = biological target: GlcNAc(b1-3)Gal
Summary of the method: as §1

[23] = biological target: GlcNAc(b1-3)Gal(b1-3)GalNAc
Summary of the method: as §1

[24] = biological target: GlcNAc(b1-3)Gal(b1-4)Glc
Summary of the method: as §1

[25] = biological target: GlcNAc(b1-3)Gal(b1-4)GlcNAc
Summary of the method: as §1

[26] = biological target: GlcNAc(b1-3)Gal(b1-4)GlcNAc(b1-3)Gal(b1-4)GlcNAc
Summary of the method: as §1

[27] = biological target: GlcNAc(b1-3)GalNAc
Summary of the method: as §1

[28] = biological target: GlcNAc(b1-3)Man
Summary of the method: as §1

[29] = biological target: GlcNAc(b1-3)[GlcNAc(b1-4)][GlcNAc(b1-6)]GlcNAc
Summary of the method: as §1

[30] = biological target: GlcNAc(b1-3)[GlcNAc(b1-6)]Gal(b1-4)GlcNAc
Summary of the method: as §1

[31] = biological target: GlcNAc(b1-3)[GlcNAc(b1-6)]GalNAc
Summary of the method: as §1

[32] = biological target: GlcNAc(b1-4)Gal(b1-4)GlcNAc
Summary of the method: as §1

[33] = biological target: GlcNAc(b1-4)GlcNAc
Summary of the method: as §1

[34] = biological target: GlcNAc(b1-4)GlcNAc(b1-4)GlcNAc
Summary of the method: as §1

[35] = biological target: GlcNAc(b1-4)GlcNAc(b1-4)GlcNAc(b1-4)GlcNAc(b1-4)GlcNAc
Summary of the method: as §1

[36] = biological target: GlcNAc(b1-4)GlcNAc(b1-4)GlcNAc(b1-4)GlcNAc(b1-4)GlcNAc(b1-4)GlcNAc
Summary of the method: as §1

[37] = biological target: GlcNAc(b1-4)[GlcNAc(b1-6)]GalNAc
Summary of the method: as §1

[38] = biological target: GlcNAc(b1-6)Gal(b1-4)GlcNAc
Summary of the method: as §1

[39] = biological target: GlcNAc(b1-6)GalNAc
Summary of the method: as §1

[40] = biological target: GlcNAc3Prop(b1-4)GlcNAc
Summary of the method: as §1

[41] = biological target: GlcNAc6S(b1-3)Gal(b1-4)GlcNAc
Summary of the method: as §1

[42] = biological target: Kdn(a2-3)Gal(b1-3)GalNAc
Summary of the method: as §1

[43] = biological target: Kdn(a2-3)Gal(b1-3)GlcNAc
Summary of the method: as §1

[44] = biological target: Kdn(a2-3)Gal(b1-4)Glc
Summary of the method: as §1

[45] = biological target: Kdn(a2-3)Gal(b1-4)GlcNAc
Summary of the method: as §1

[46] = biological target: Kdn(a2-3)Gal(b1-4)[Fuc(a1-3)]GlcNAc
Summary of the method: as §1

[47] = biological target: Kdn(a2-6)Gal(b1-4)GlcNAc
Summary of the method: as §1

[48] = biological target: Man(a1-2)Man(a1-2)Man(a1-3)Man
Summary of the method: as §1

[49] = biological target: Man(a1-2)Man(a1-2)Man(a1-6)[Man(a1-3)]Man
Summary of the method: as §1

[50] = biological target: Man(a1-2)Man(a1-3)Man
Summary of the method: as §1

B1: Gal 3 (Homo sapiens), P17931 (protein)
chain: MADNFSLHDALSGSGNPNPQGWPGAWGNQPAGAGGYPGASYPGAYPGQAPPGAYPGQAPPGAYHGAPGAYPGAPAPGVYPGPPSGPGAYPSSGQPSAPGAYPATGPYGAPAGPLIVPYNLPLPGGVVPRMLITILGTVKPNANILDFQRGNDVAFHFNPRFNENNRRVIVCNTKLDNNWGREESQSVFPFESGKPFKIQVLVEPDHFKVAVNDAHLLQYNHRVKKLNEISKLGISGDIDLTSASYTMI
[1]
  glycan array binding signal (z-score): -0.023
[2]
  glycan array binding signal (z-score): -0.035
[3]
  glycan array binding signal (z-score): -0.051
[4]
  glycan array binding signal (z-score): -0.088
[5]
  glycan array binding signal (z-score): -0.045
[6]
  glycan array binding signal (z-score): -0.029
[7]
  glycan array binding signal (z-score): -0.067
[8]
  glycan array binding signal (z-score): -0.057
[9]
  glycan array binding signal (z-score): -0.09
[10]
  glycan array binding signal (z-score): -0.043
[11]
  glycan array binding signal (z-score): -0.02
[12]
  glycan array binding signal (z-score): -0.059
[13]
  glycan array binding signal (z-score): -0.057
[14]
  glycan array binding signal (z-score): -0.043
[15]
  glycan array binding signal (z-score): -0.005
[16]
  glycan array binding signal (z-score): -0.02
[17]
  glycan array binding signal (z-score): -0.059
[18]
  glycan array binding signal (z-score): -0.074
[19]
  glycan array binding signal (z-score): -0.082
[20]
  glycan array binding signal (z-score): -0.012
[21]
  glycan array binding signal (z-score): -0.073
[22]
  glycan array binding signal (z-score): -0.059
[23]
  glycan array binding signal (z-score): 0.007
[24]
  glycan array binding signal (z-score): -0.053
[25]
  glycan array binding signal (z-score): -0.083
[26]
  glycan array binding signal (z-score): -0.086
[27]
  glycan array binding signal (z-score): -0.069
[28]
  glycan array binding signal (z-score): -0.041
[29]
  glycan array binding signal (z-score): 0.011
[30]
  glycan array binding signal (z-score): -0.081
[31]
  glycan array binding signal (z-score): -0.075
[32]
  glycan array binding signal (z-score): -0.083
[33]
  glycan array binding signal (z-score): -0.09
[34]
  glycan array binding signal (z-score): -0.058
[35]
  glycan array binding signal (z-score): -0.092
[36]
  glycan array binding signal (z-score): -0.063
[37]
  glycan array binding signal (z-score): -0.089
[38]
  glycan array binding signal (z-score): -0.076
[39]
  glycan array binding signal (z-score): -0.058
[40]
  glycan array binding signal (z-score): -0.07
[41]
  glycan array binding signal (z-score): -0.024
[42]
  glycan array binding signal (z-score): -0.067
[43]
  glycan array binding signal (z-score): -0.07
[44]
  glycan array binding signal (z-score): -0.004
[45]
  glycan array binding signal (z-score): -0.081
[46]
  glycan array binding signal (z-score): -0.008
[47]
  glycan array binding signal (z-score): -0.071
[48]
  glycan array binding signal (z-score): -0.067
[49]
  glycan array binding signal (z-score): -0.058
[50]
  glycan array binding signal (z-score): -0.024
